Results as given in the supplement of paper PMC3334620.
Over roughly 33,000 sequences, “E-score (-0.5 to 0.5)” has its median near -0.011; the highest 2% begin near 0.28. This is one part of the list.

Molecular target: T1, Gcr1 (UniProt P07261)
T1 sequence: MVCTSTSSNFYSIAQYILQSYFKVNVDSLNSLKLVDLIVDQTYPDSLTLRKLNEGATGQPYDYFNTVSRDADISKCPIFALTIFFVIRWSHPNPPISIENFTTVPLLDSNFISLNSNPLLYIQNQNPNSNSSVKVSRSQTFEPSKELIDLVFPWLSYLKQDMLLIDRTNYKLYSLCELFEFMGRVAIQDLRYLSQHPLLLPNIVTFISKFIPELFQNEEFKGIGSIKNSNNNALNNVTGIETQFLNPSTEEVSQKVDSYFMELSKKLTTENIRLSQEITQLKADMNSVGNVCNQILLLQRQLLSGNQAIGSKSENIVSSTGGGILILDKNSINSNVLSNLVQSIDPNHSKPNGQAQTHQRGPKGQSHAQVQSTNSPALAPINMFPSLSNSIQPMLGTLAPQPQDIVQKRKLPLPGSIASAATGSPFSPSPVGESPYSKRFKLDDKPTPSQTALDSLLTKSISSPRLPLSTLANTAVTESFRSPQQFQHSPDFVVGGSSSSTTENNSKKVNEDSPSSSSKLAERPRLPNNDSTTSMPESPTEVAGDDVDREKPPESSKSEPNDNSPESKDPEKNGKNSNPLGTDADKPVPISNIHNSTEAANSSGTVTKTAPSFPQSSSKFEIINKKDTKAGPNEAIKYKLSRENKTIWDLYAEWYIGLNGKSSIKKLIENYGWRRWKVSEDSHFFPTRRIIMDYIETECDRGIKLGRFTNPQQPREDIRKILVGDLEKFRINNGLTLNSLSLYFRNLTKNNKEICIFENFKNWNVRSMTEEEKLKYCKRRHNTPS
Experiment: PBM E-score (8-mer binding enrichment) (E-score (-0.5 to 0.5)); higher = stronger / more preferred TF binding; most listed sequences are background and not binding sites
Conditions: protein concentration: 100 nM; construct: GST-full length
In short: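 Using PURExpress in vitro transcription/translation, GST-tagged yeast transcription factors were made in full-length or DNA-binding-domain form. These were applied at about 100-200 nM to double-stranded universal all-10-mer Agilent arrays, and bound protein was detected with fluorescent anti-GST. Scans were normalised with masliner before the Universal PBM Analysis Suite assigned E-scores to ungapped eight-base words pooled with their reverse complements.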

Sequence	PBM E-score
ATAACAAG	0.0537
TCTTTCCA	0.128
CCAGCCCG	-0.137
CCTACAGG	-0.0829
CACTAAAA	0.219
CGTTAAAC	0.0113
CCCTTAGC	-0.0669
AGGGAAAC	0.101
ATGGAACA	-0.0319
AGAGGTAA	-0.196
GATCCGAA	0.116
TATGATCA	0.0371
AATCCCGT	0.169
TCGTAACA	0.0684
GATGTAAA	-0.00476
GGCCGCAC	-0.162
AGGATCTA	0.0568
GGAAAAGA	-0.0294
ATTACGGA	0.0799
AAAACGTG	-0.0965
AAGATCGG	0.0628
GCGGTAAC	-0.12
ACTCAGGA	0.228
GCCGCGCA	-0.0483
AGAATGGG	0.119

Sequence	PBM E-score
AAACGGTC	-0.0468
CCTATGGC	-0.105
AACGAAGA	0.211
CTCCTTGC	-0.169
GGCCGAAA	-0.0486
CAATGCGG	-0.031
AAGTATAG	0.0716
CCTAGTTC	0.172
ACTCAGGG	-0.0431
CGAGCGCG	-0.157
CACTAGGG	0.0189
GGACACAC	0.00943
AGTACAAC	-0.111
CTGCTCCA	-0.124
TCGTCGAA	-0.183
AGCTTTTG	-0.0171
GTTCTAGA	0.217
CACACCAA	-0.0636
GCCACCAA	0.0222
ATGTCATA	0.106
ATTGCGAG	-0.214
AATCGACA	0.13
TCTGGGAA	0.00186
AGCTACCT	0.183
ACTCGTCG	-0.288

Sequence	PBM E-score
TATTTTCA	0.168
GAGTCTTA	-0.226
GGTCTCCA	0.156
AATTACGA	0.108
CCTTGACG	-0.00826
AATGAAGA	-0.0467
GGCCCGCA	-0.0485
CCTTCCAG	0.0686
AGATGCCA	0.385
ATGCGAAA	0.107
CTTATCTA	0.159
ACACAGGT	0.0552
ATAAGTAG	0.126
AGTGGGAC	-0.0289
AGGTGGCC	-0.0324
CACAAGGG	-0.0799
AGCCGCGC	0.0175
AGAGCGTG	-0.106
CCATGACC	-0.165
CATGTATC	-0.022
TGCTTAAA	0.267
GCCCTTCA	-0.0164
AGGTCGGA	-0.149
AGAACATG	-0.117
GACGTCCC	-0.051

Sequence	PBM E-score
CCAACGGG	-0.027
CGGTATCA	-0.0496
GATTTAGC	0.131
TCCAGTCA	0.138
AGGATGTG	-0.00019
ACGGGCCG	-0.24
CGGCTGCC	0.376
AGCGTAAT	0.0149
TAAACCAA	-0.0299
ATTTACTC	-0.0422
CTGCGTTA	-0.00686
AACCAAAT	0.192
GATTGCCA	-0.0717
GGAGACCC	-0.00231
CTTCGGCC	-0.325
ATAGACAT	-0.0591
GCATGACA	-0.0488
CGAACGGC	-0.327
ATTGAATA	0.083
ATTAGACG	0.295
GAGCAACC	0.183
GGCTGTGA	-0.199
AAAGTTGT	-0.00604
AACGAGGC	-0.289
AGTAGGGG	0.162

Sequence	PBM E-score
AGTCTTCA	-0.173
ATCCACAG	0.095
ATTATGAG	-0.109
ATGCTGGG	-0.0684
GAGATGCA	-0.0326
AGGCGAAT	0.164
GGTACGAA	0.0552
GCTCACAC	-0.138
ATCGTGTC	-0.0762
CAGAGAAA	-0.0752
AAGTCGGC	0.101
AATTTACG	0.0625
ACCAGTCG	-0.0765
AAACAATC	-0.118
ATTAATGA	0.206
ACGTGAGG	-0.188
ATCAGAGG	-0.0655
CGCTTGAA	-0.00196
CAATCCCA	-0.238
ATACATGG	-0.0143
ACAGGCGT	0.0735
ACTTATAT	0.0752
ATCTTTAA	0.126
AAACTTTC	-0.112
AAGGAGCC	0.236

Sequence	PBM E-score
AGGGGCGC	0.0975
CAAAGCAG	0.151
AAAGCCCC	-0.121
CAAAAGAA	0.00461
CTCTGTGC	-0.0991
CCATGCTC	-0.163
CTTGTCTC	0.0266
CAAGATTA	0.115
CGGTGTTC	0.138
CTTTGATA	-0.126
AGGAGGAG	-0.174
ATGTCAGG	-0.0106
CCCGAGGA	0.127
ATTGTTTC	0.0668
CCACTTCG	0.0958
CAACTGTA	0.0815
GCTTTCGA	-0.172
AGTACACA	-0.0105
TCTCGACA	0.00826
CACCTAAC	-0.0762
CTGGTTTA	-0.157
AGATTGTG	-0.183
ATTTGCTC	0.011
CAGCTACC	0.106
ATTGCTCA	-0.0603

Sequence	PBM E-score
CAATCCGG	0.138
AACTGCAC	-0.144
AACAGCTG	-0.139
GCTGAAGA	-0.0946
AGAGAAAG	-0.17
CGACGCAG	-0.168
TCCCGTAA	0.197
CAGCCCTG	-0.221
ACTTCCTC	0.243
CTGGATTC	0.361
CACTAAAG	0.00198
CTTTGATC	-0.117
TAAAGGTA	-0.0155
ATACCTCA	-0.0734
ATTACAAC	0.00639
CAGCGGAC	0.0152
AAGACAAA	0.0314
ATTTTCAA	0.191
ACATAGAA	0.159
CCAGATCG	0.117
CCCACTTA	0.0227
CGCAACAG	-0.0598
CGTTCCGC	-0.0069
GCTCCCAC	0.262
AGCTGCCA	0.385

Sequence	PBM E-score
CAAACTAC	0.0803
AAAACTGC	-0.038
CTACAGCC	-0.24
CTAGGAAC	0.149
ACAGGGCC	0.144
ACGGTCGA	-0.354
CGCATGCG	-0.0342
AACCGTTG	-0.191
CGTGGACA	-0.0344
GCACGGGC	-0.215
ATCTTTTA	0.11
CTGAATGA	0.0649
AAAGCCGT	-0.166
CTGCGCTC	-0.21
AGTGCCCG	-0.042
AACCCTAA	-0.0435
AGCCCCTG	-0.173
ATAGAAGG	0.0701
GCAAGTGC	-0.0557
GACGTCAA	-0.0162
ACGCGTCT	0.155
CACGGCAG	0.0173
AACGGCGC	-0.153
GTCTTTTA	0.101
CGTCCGAA	0.148

Sequence	PBM E-score
AGATTTTC	-0.0558
CGTCAGAC	-0.108
ATAGGTCC	-0.0274
ATGATGTG	0.175
AACGTAAA	0.122
GTGAACGA	0.0611
GCTTTTAC	0.141
CCATCGGA	-0.0523
CTCGTGAA	-0.0358
GCGGTTAA	-0.0577
GACCTAGC	-0.152
CACGAGAA	-0.0173
CGATCGAG	-0.26
GCATAACA	-0.104
ATTGATGC	0.137
ACGGTTTA	-0.0632
ACTTATCT	0.199
CCGGCACA	-0.108
ATATAAAA	0.263
AGAGGCCG	-0.0292
AGGCCAAC	-0.192
GTTGTTTA	0.0582
CGAGACAC	-0.141
CAGACCGG	-0.192
CTGAATCA	0.147

Sequence	PBM E-score
GCATGGAC	-0.119
AGCGTGTG	-0.0337
CAACGACG	-0.109
ATAAACGA	0.246
CATGCCCA	-0.155
ACGAAAGG	-0.0301
CCCTAATC	0.027
GCGGCCGC	-0.0199
ACACTCAT	-0.0199
ACGAAGTC	0.107
ATCTTGGA	0.143
ACTCTAGA	-0.0599
ACTGAACG	-0.123
GTGACAGA	-0.116
ACGCTGGC	0.0265
AAGTACGC	-0.0784
ATTGTACA	-0.0854
TTATGCAA	-0.111
CTTGAGGC	-0.0269
AACAGTAC	-0.11
CCGACCCA	-0.0324
GACTGTGC	-0.256
CCCCTGCG	-0.167
CAAAGGCC	-0.305
ACGGGCCA	-0.0346

Sequence	PBM E-score
CGCCGGCA	0.159
ACTTGAGG	-0.228
GCTGCACA	0.0585
ACCTAACA	0.157
CAAGGACG	-0.0704
GAAACGAC	-0.0115
ACCCCGTA	-0.0035
AAAAAAAC	0.115
GAATAGCA	0.125
GTAGTTTA	0.103
CCTTTTTC	0.0572
CCTGTCGC	-0.0564
AGAATTCT	0.224
ATGTCTGG	0.0464
AGGGAATG	-0.212
AGACTTTA	-0.158
AGCACAGA	-0.0174
GAAATCTA	0.0966
AGACAGTG	0.00806
ACAGTACA	-0.125
AATTGTCC	0.0115
CCTGATTA	0.127
AGATCGGA	0.0505
CCGCACAC	-0.0537
CAAATCAA	-0.0296

Sequence	PBM E-score
CAAGTATG	0.038
TCGAGCGA	-0.176
ACACAAAG	-0.0888
AGCCTCCC	0.108
ATACACTA	0.0688
CCGACTGA	-0.0839
AATAGGGT	0.127
CCGACGCC	0.233
CACACTCA	-0.0795
CCCGGGCC	-0.197
ATGTGGCG	-0.0124
GTGTATAA	-0.0442
GCCCTCGC	-0.0477
ATAGTCAT	-0.09
AAAAGCCT	-0.229
CCCCCCCG	-0.219
ATTCGCGA	0.0371
AATCCTTA	0.0501
CCTTTAAC	0.147
AGCCTTTC	-0.18
GAAGTCAA	0.297
ATTCAACA	-0.0831
CAGATATA	-0.0372
CACGCTCC	-0.0164
CGAATCCG	0.119

Sequence	PBM E-score
ATGTCTGA	0.0619
CAGTGAAA	-0.00452
ACTGTTAC	0.00344
AAGCTCGA	0.0832
CGCATGTA	-0.278
CGTACAAG	0.11
CTAATTCA	0.178
AGTTATAA	0.139
ATGTCGTG	-0.0049
GGTTTGGA	0.115
CCATTTTC	0.176
AGTTATGC	-0.0314
ACCGCCTA	-0.0925
ACAGCACC	0.187
ACAGCCGG	0.117
ACCAAGCA	0.175
CATATTAA	0.134
CTCAAGGC	-0.0689
ATACACTC	-0.158
GACGCGGA	-0.0936
CAACGTCG	0.021
ATCCCATG	-0.0862
ATGTGCTC	-0.155
GTCCTCAA	-0.0769
AATTCTGA	0.113

Sequence	PBM E-score
CGGGTCCC	0.223
GTGAGGGA	-0.0881
TAAGCACA	-0.0341
AGGAGAAC	-0.0959
CGTTGTAC	-0.0675
ATGGAGTA	-0.0448
GCGTATAC	0.156
GGTCAGCA	-0.146
CCGCATAC	0.124
ATCCAGCA	0.235
AAGTACAC	0.0261
CTCGTCTA	0.0411
AACGGCTA	-0.0206
ATAGGCCC	-0.0888
AAGCAATA	0.0262
GTCCTCAC	-0.14
CGCTAGTC	-0.153
GGCAGAAA	-0.032
GACGAACA	-0.0927
